# Reference: the supplement of paper PMC10126150
# Sequences with one replicate were seen in a single cluster, so their values are uncertain.
# Test system: ATP
# Experiment: switch fluorescence ratio, 500 uM ATP over buffer (Cy3 cluster intensity, sum of 5 cycles each) (fold (ratio)); higher = stronger signal-on switching upon ATP binding; sequences stand for … in TCGTCGGCAGCGTCAGATGTGTATAAGAGACAGTTTTTTTTTTTTTTTTTTTTTTTTT…TC
# Settings: aptamer strand: ATP DNA aptamer (quencher-CACCTGGGGGAGTATTGCGGAGGAAGG + anchor), 100 nM annealed; ATP concentration: 500 uM; one replicate
# In short: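 Between each of five buffer/ATP cycles, the flow-cell was stripped with NaOH and re-annealed. Each cycle imaged Cy3-labelled switching-strand clusters, annealed to 100 nM quencher-labelled ATP aptamer on a modified Illumina MiSeq flow-cell, first in selection buffer and then after 15 min with 500 uM ATP at 22 °C. The fluorescence ratio is summed target-cycle over summed buffer-cycle Cy3 intensity per cluster, averaged per switch-domain sequence, with clusters outside 100-1000 RFU excluded.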
# 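Further: ATP exposure 15 min at 22 °C before imaging.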
row,Sequence,switch fluorescence ratio
1,ATTACAGTTT,0.992
2,ATTACATTGG,0.985
3,ATTACGATCG,1.05
4,ATTACGGACG,1.08
5,ATTACGTCTT,1.02
6,ATTAGACCTT,1.23
7,ATTAGCCGTG,0.978
8,ATTAGCGGTG,1.03
9,ATTAGGACAT,1.02
10,ATTAGGCCAG,1.05
11,ATTAGGCTTC,0.997
12,ATTAGGGG,0.965
13,ATTAGGTTA,1.02
14,ATTAGTAC,0.997
15,ATTATAAGTT,1.03
16,ATTATACTG,1.05
17,ATTATAGAAG,0.981
18,ATTATAGATT,0.972
19,ATTATAGGAG,1
20,ATTATCCAAA,1.01
21,ATTATGAGAT,1.01
22,ATTATGATGA,1.01
23,ATTATGCAC,1.09
24,ATTATGCATG,0.981
25,ATTATGCTCT,1.03

row,Sequence,switch fluorescence ratio
1,ATTATTATTT,0.958
2,ATTATTCGCA,1.01
3,ATTATTTTCG,1.02
4,ATTCAACATT,1.05
5,ATTCAATGCT,1.03
6,ATTCACCTCG,1.02
7,ATTCAGATGG,0.941
8,ATTCAGTACC,1.04
9,ATTCATCGTT,0.993
10,ATTCATTTAA,0.914
11,ATTCCAGGCA,1.03
12,ATTCCCCGCT,0.987
13,ATTCCGAAGG,1.02
14,ATTCCGGCCA,1.09
15,ATTCCTAACG,1.06
16,ATTCGAAGCT,1
17,ATTCGAGAGG,0.956
18,ATTCGCAGAA,1.04
19,ATTCGCCTTC,1.16
20,ATTCGCTTGG,1.04
21,ATTCGGGTA,0.984
22,ATTCGGTAAA,1.02
23,ATTCGTATGC,0.97
24,ATTCGTCGCC,1.01
25,ATTCGTGTAC,1.27

row,Sequence,switch fluorescence ratio
1,ATTCGTTGGT,0.98
2,ATTCTATCTG,0.982
3,ATTCTATTGC,1.05
4,ATTCTCATGT,1
5,ATTCTCTGTA,0.995
6,ATTCTGAAAT,1.01
7,ATTCTGAACT,1.01
8,ATTCTGTTAA,1.01
9,ATTCTTAGCA,1.02
10,ATTCTTTTCC,1.01
11,ATTCTTTTTG,0.958
12,ATTGAACCAT,0.964
13,ATTGAATATA,1.01
14,ATTGAATCTC,0.979
15,ATTGAATGCG,0.979
16,ATTGAATTT,0.967
17,ATTGACAACT,1.02
18,ATTGACAGCG,0.938
19,ATTGACGAT,1
20,ATTGAGGAGT,1.03
21,ATTGAGGATC,1
22,ATTGATCTGA,1.01
23,ATTGATGTCT,0.988
24,ATTGCAAATG,0.973
25,ATTGCCCATA,1

row,Sequence,switch fluorescence ratio
1,ATTGCCTAAG,0.977
2,ATTGCGGAAC,1.07
3,ATTGCGTCTT,1.04
4,ATTGCGTGGC,1.03
5,ATTGGAGTAA,0.945
6,ATTGGAGTTC,0.997
7,ATTGGCAAAC,1.65
8,ATTGGCATCC,0.99
9,ATTGGGAAGC,0.929
10,ATTGGGACGC,1.13
11,ATTGGTCCAG,0.977
12,ATTGGTCCAT,1
13,ATTGGTGCCT,1.03
14,ATTGGTTCGG,0.95
15,ATTGGTTTTG,0.96
16,ATTGTACGAA,1.05
17,ATTGTACTGT,1.04
18,ATTGTAGATA,0.973
19,ATTGTATATT,1.01
20,ATTGTCAAAG,0.985
21,ATTGTCCACT,1.12
22,ATTGTCGTAC,1.07
23,ATTGTCTGTT,0.977
24,ATTGTGCAGA,1.04
25,ATTGTGTGGA,1.04
